# Assay results taken from PubChem BioAssay AID1346428 (National Center for Advancing Translational Sciences (NCATS), 2018).
# Out of some 48,000 compounds screened, about 1,200 (2.5%) were called active. Not shown: some 2% with an inconclusive outcome.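 Rule for the calls: active = activation of at least 60% and not above a set upper limit (about 1 call in 100 departs from these limits); inconclusive = activation of 40% to 60%, or above that upper limit; inactive = activation under 40%.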 The list shows a part of the results.
# Molecular target: Probable G-protein coupled receptor 32 (Homo sapiens) (UniProt O75388)
# Experiment: qHTS for Agonists of Human Resolvin D1 Receptor DRV1; note: 0% is about no effect
# Details: CHO-K1 GPR32 beta-arrestin PathHunter luminescence, 90 min; at 76.9 µM; active compounds read high; zero percent set by DMSO-only wells
# Outline: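 Agonism was scored by beta-Gal fragment complementation (chemiluminescent read, 1 h detection at ambient temperature) reporting beta-arrestin binding to GPR32 in engineered CHO-K1 cells. Compound treatment lasted 90 min at 37 C, normalized to a DMSO basal control.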
# Sequence of UniProt O75388 (O75388 whole entry, looked up): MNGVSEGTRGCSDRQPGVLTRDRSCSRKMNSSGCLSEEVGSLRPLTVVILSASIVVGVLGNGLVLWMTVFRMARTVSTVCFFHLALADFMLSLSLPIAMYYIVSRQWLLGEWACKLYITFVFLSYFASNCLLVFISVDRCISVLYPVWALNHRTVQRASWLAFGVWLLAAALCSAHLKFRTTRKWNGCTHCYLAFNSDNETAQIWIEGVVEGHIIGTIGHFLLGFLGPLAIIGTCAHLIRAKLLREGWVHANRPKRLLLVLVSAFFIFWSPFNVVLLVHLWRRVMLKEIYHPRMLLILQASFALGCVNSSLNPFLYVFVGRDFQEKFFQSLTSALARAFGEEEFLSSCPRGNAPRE
row,Compound,activation
1,COc1cccc(CNC(=O)c2sc3nc(C)cc(C)c3c2-n2cccc2)c1OC,inactive: 3.7%
2,Cc1c(C(=O)NCc2ccccc2)sc2nc3n(c(=O)c12)CCCCC3,inactive: 19.6%
3,CCOc1ccc(NC(=O)C2CC(=O)NC(=Nc3ccc(Cl)c(Cl)c3)S2)cc1 (stereo not drawn),inactive: -25.2%
4,COC(=O)c1sccc1S(=O)(=O)N1CCN(c2cc(Cl)ccc2C)CC1,inactive: -24.5%
5,COC(=O)C(Cc1c[nH]c2ccccc12)NC(=O)COc1cccc(C)c1 (stereo not drawn),inactive: -10.2%
6,Cc1ccc(Cl)cc1N1CCN(C(=O)c2ccc(NC(=O)c3nsc4ccccc34)cc2)CC1,inactive: -9.51%
7,CCOC(=O)COc1ccc(CC)cc1C(=O)c1ccn2nc(-c3ccccc3)cc2n1,inactive: -12.8%
8,Cc1ccc(NC(=O)c2oc3ccc(S(=O)(=O)N4CCC5(CC4)OCCO5)cc3c2C)cc1C,inactive: -3.09%
9,COCCNC(=O)CCn1c(=O)c2cc(OC)c(OC)cc2n(CC(=O)Nc2ccc(Cl)cc2F)c1=O,inactive: -7.45%
10,Cc1ccc(-c2n[nH]c3c2C(c2ccc(C(C)(C)C)cc2)NC3=O)cc1 (stereo not drawn),inactive: -5.01%
11,Cc1nn(S(=O)(=O)c2ccc(C(C)(C)C)cc2)c(C)c1S(=O)(=O)N1CCCCCC1,inactive: 0.633%
12,Cc1ccc(NC(=O)Cn2nnc3sc(-c4ccccc4)cc3c2=O)cc1Cl,inactive: -2.07%
13,Cc1ccc2c(c1)N(C(=O)NCc1ccccc1)CCO2,inactive: -14.4%
14,CCC(C)NC(=O)c1ccc2c(=O)n3c(nc2c1)CCCCC3 (stereo not drawn),inactive: 0.446%
15,COc1ccc(C)cc1NS(=O)(=O)c1ccc2c(c1)n(C)c(=O)n2C,inactive: 24.7%
16,CCC(CC)c1nn2c(=O)cc(COc3ccc(NC(=O)c4cccc(Cl)c4)cc3)nc2s1,inactive: -1.73%
17,COc1ccc(C(=O)NCC2(N3CCN(C)CC3)CCCCC2)cc1,inactive: -13.6%
18,CCn1c(=O)c(=O)n(CC)c2cc(N3CCCCC3)c(NC(=O)c3cccc(F)c3)cc21,inactive: -1.79%
19,Cc1nnc2c(Nc3cccc(O)c3)nc3ccccc3n12,inactive: 2.55%
20,CC(=O)Nc1ccc(C)cc1-c1nc2ccccc2n(CC(=O)Nc2cc(Cl)ccc2C)c1=O,inactive: -9.79%
21,CCCN1Cc2cccc(C(=O)Nc3cc(C)cc(C)c3)c2C1=O,inactive: -10.8%

row,Compound,activation
1,O=C1c2cccc3c2[C@H](CCC3)CN1[C@@H]1CN2CCC1CC2,inactive: 16%
2,COc1ccc(Cl)cc1NC(=O)CCC(=O)N1CCOc2ccccc21,inactive: -6.31%
3,COc1ccc(NC(=O)Cn2c(=O)n(Cc3ccc(C(=O)NCc4ccccc4Cl)cc3)c(=O)c3ccccc32)cc1OC,inactive: 0.0093%
4,COc1ccc(NC(=O)CSc2nc(-c3ccco3)cc(C(F)(F)F)n2)cc1,active: 94.6%
5,COc1cccc(CNS(=O)(=O)c2cc3c(cc2C)n(C)c(=O)c(=O)n3C)c1,inactive: 1.75%
6,Cc1noc(-c2ccc(NCc3ccccc3)c([N+](=O)[O-])c2)n1,inactive: -9.96%
7,COc1ccc(NC(=O)Cn2c(=O)n(CCc3ccccc3)c(=O)c3ccccc32)cc1,inactive: 14.4%
8,COc1ccc2nc(NC(=O)c3cc(=O)c4ccccc4o3)sc2c1,inactive: -17.1%
9,Cc1ccccc1OCC(=O)Nc1cc(-c2cccc(Br)c2)nn1-c1ccccc1,inactive: -5.87%
10,O=C(NCc1nc2cccnc2n1Cc1ccc(F)cc1)c1ccccc1C(F)(F)F,inactive: -18.9%
11,O=C(c1cccc(Cl)c1)N1CCN(CCc2ccccn2)CC1,inactive: -0.922%
12,CCCCNC(=O)c1c(C)oc2ncn(CC(C)C)c(=O)c12,inactive: -10.1%
13,CCOc1ccc(NC(=O)Cn2nc(-c3ccncc3)ccc2=O)cc1,inactive: -16.3%
14,COc1ccc(C(=O)N(Cc2ccco2)Cc2ccco2)cc1,inactive: -13%
15,COc1ccccc1CNCCSc1nnnn1C,inactive: 23.7%
16,Nc1c(-c2nc(-c3ccncc3)no2)nnn1CC(=O)Nc1ccccc1,inactive: -7.27%
17,COC(=O)c1c(N)n(-c2cc(Cl)cc(Cl)c2)c2nc3ccccc3nc12,inactive: -23.7%
18,CCC(=O)N1CCc2cc(Br)cc(S(=O)(=O)N3CCCC(C(=O)NCc4ccccc4)C3)c21 (stereo not drawn),inactive: -20.8%
19,Cc1ccccc1CN1C(=O)c2ccccc2Sc2ccc(C(=O)NCc3cccs3)cc21,inactive: -16.9%
20,Cc1noc(/C=C/c2ccccc2F)c1S(=O)(=O)N1CCC(C(=O)N(C)Cc2ccco2)CC1,inactive: -21.8%
21,COc1ccccc1N1CCN(S(=O)(=O)c2c(C)sc3ncn(CC(=O)Nc4ccccc4F)c(=O)c23)CC1,inactive: 1.81%

row,Compound,activation
1,COc1ccc(S(=O)(=O)NCC(c2ccco2)N2CCOCC2)cc1C (stereo not drawn),inactive: -14.6%
2,O=C(Cn1c(=O)nc(-c2ccccc2)c2cc(Cl)ccc21)NCCc1ccc(Cl)cc1,inactive: -12.1%
3,CCOc1ccc(/C=C/c2nc3ccccc3n2S(=O)(=O)c2ccc(Br)cc2)cc1,inactive: 24.3%
4,COc1cccc(NC(=O)Cn2c(=O)n(-c3ccc(Cl)cc3)c(=O)c3sc4ccccc4c32)c1,inactive: -11.9%
5,CCN1CCN(c2ncc3c(n2)CCN(Cc2ccc(Br)s2)C3)CC1,inactive: -32.6%
6,CCc1ccc(NCc2cccn2-c2nnc(N3CCCCCC3)s2)cc1,inactive: -24.1%
7,CCOc1ccc(NC(=O)CSc2nnc(CNC(=O)c3c(F)cccc3Cl)o2)cc1,inactive: -7.43%
8,COc1ccc(OC)c(-c2cc(C(=O)Nc3cnn(Cc4ccc(Cl)cc4Cl)c3)no2)c1,active: 90.6%
9,CCc1ccc(-c2[nH]nc3nc(-c4ccc(OC)cc4)cc(C(=O)NCCc4ccc(OC)c(OC)c4)c23)cc1,inactive: -8.09%
10,COc1ccc(C(=O)NCCc2sc(-c3ccc(Cl)cc3)nc2C)c(OC)c1,inactive: 13%
11,Cc1ccc(NC(=O)Cn2c(=O)n(-c3ccccc3)c(=O)c3c4c(sc32)CCCC4)cc1,inactive: -1.44%
12,COc1ccc(C)cc1NC(=O)NCc1ccc2c(c1)CCN2C(=O)c1ccccc1,inactive: -24.3%
13,C=Cc1ccc(CN2C(=O)N(c3ccc(CC)cc3)S(=O)(=O)c3ccccc32)cc1,inactive: -7.19%
14,COc1ccc(C)cc1NC(=O)CSc1nc(=O)n(Cc2ccncc2)c2c1CCC2,inactive: 13.1%
15,COc1ccc(C)cc1Nc1nc2cc(Cl)c(Cl)cc2nc1-n1nc(C)cc1C,inactive: 15.7%
16,CCc1cccc(N2C(=O)N(CC(=O)NCc3cccc(OC)c3OC)c3ccccc3S2(=O)=O)c1,inactive: -24.4%
17,CCCN1C(=O)C(Cc2nc3ccccc3c(=O)n2-c2ccccc2)c2cc(C)ccc21 (stereo not drawn),inactive: -9.69%
18,COc1cc(NC(=O)CN2C(=O)COc3ccc(S(=O)(=O)N4CCCCC4)cc32)cc(OC)c1,inactive: -23.6%
19,Cc1ccc(C)c(CN2C(=O)c3ccccc3S(=O)(=O)c3ccc(C(=O)N4CCN(c5ccccn5)CC4)cc32)c1,inactive: -60%
20,CCOC(=O)COc1ccc(C)cc1C(=O)c1ccn2nc(-c3ccc(C)cc3)cc2n1,inactive: -7.3%
21,COC(=O)c1ccc(OCC2c3cc(OC)c(OC)cc3CCN2C(=O)C(C)C)cc1 (stereo not drawn),inactive: -3.42%

row,Compound,activation
1,COCCNC(=O)c1ccc(CSc2nc3ccncc3n2Cc2ccccc2)cc1,inactive: 26.8%
2,O=C(CSc1ncc2c(n1)-c1ccccc1N(Cc1ccccc1)S2(=O)=O)Nc1ccccc1,inactive: -7.06%
3,COc1cccc(NC(=O)CSc2nc3ccccc3n2C)c1,inactive: 2.82%
4,CCC(=O)N1CCc2cc(S(=O)(=O)CCC(=O)N3CCN(c4cc(C)ccc4C)CC3)ccc21,inactive: -3.2%
5,COc1ccc(OC)c(NC(=O)CN(C)S(=O)(=O)c2ccc3[nH]c4c(c3c2)CCCC4)c1,inactive: -0.456%
6,CCOc1ccc(NC(=O)c2c(NC(=O)Cc3ccccc3)sc3c2CCC(C)C3)cc1 (stereo not drawn),inactive: -11.2%
7,COCCCNC(=O)C1CCN(Cc2nc(-c3ccc(OC)c(OC)c3)oc2C)CC1,inactive: -8.06%
8,Cc1ccc(NC(=O)Cn2c(=O)n(Cc3ccco3)c(=O)c3ccc(C(=O)NC4CCCC4)cc32)c(C)c1,inactive: -12.2%
9,COc1ccc(Cn2nnc(C(=O)Nc3cc(OC)ccc3OC)c2N)cc1,inactive: -1.56%
10,COc1ccc(OC)c(CCNC(=O)c2c(C)nn(-c3ccc(F)cc3)c2-n2cccc2)c1,inactive: 0.888%
11,CCOc1ccc(C(=O)NCC(c2ccc3c(c2)OCO3)N2CCN(c3ccccc3F)CC2)cc1 (stereo not drawn),inactive: -25.6%
12,Cc1nnc(N2CCC(C(=O)NC3CCCCC3)CC2)c2nn(-c3ccc(Cl)cc3)c(C)c12,inactive: 7.84%
13,CCOc1ccc(NC(=O)c2c(NCc3ccc(C)o3)sc3c2CCC(C)C3)cc1 (stereo not drawn),inactive: -11.3%
14,CCn1c(=O)cc(SCC(=O)NCCc2cc(OC)ccc2OC)c2ccccc21,inactive: 20.7%
15,CC(C)c1ccc(OC(=O)c2cc(-c3ccc(Cl)cc3)on2)cc1,inactive: 11%
16,COc1ccc(CC(=O)NCC(c2ccc(N(C)C)cc2)N2CCOCC2)cc1 (stereo not drawn),inactive: -7.59%
17,CCCNC(=O)N1[C@H](c2ccc(C)s2)[C@@H](C)C(=O)[C@@H](C)[C@@H]1c1ccc(C)s1,inactive: -15.7%
18,CCN(CC)C(=O)Cn1c(=O)nc(-c2ccccc2F)c2cc(Cl)ccc21,inactive: -14.5%
19,COC(=O)c1cnc(NCc2ccc(F)cc2)c2ccccc12,inactive: -27.6%
20,COc1ccc(N2C(=O)C(CC(=O)Nc3ccc(F)cc3)N(Cc3ccc4c(c3)OCO4)C2=O)cc1 (stereo not drawn),inactive: -4.28%
